Measurements published in PubChem BioAssay AID757 (NMMLSC, 2007).
Out of some 190,000 compounds screened, about 520 (0.27%) were called active. Inconclusive results, whose numbers are uncertain, are shown with a selection of clear calls.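 The calls were made as follows: active = GTP binding activity at least 20 points away from the 100% control level, either lower or higher; inconclusive = compound flagged as likely green fluorescent, judged across all proteins; inactive = the rest.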

Each molecule was assayed against Ras-related C3 botulinum toxin substrate 1 (Homo sapiens) (UniProt P63000) (assay: wildtype Rac1 GTP binding modulators, primary screen, biochemical, GST-Rac1 beads, flow cytometry, multiplex (AID 757)). Conditions: fluorescent GTP binding, at 10 µM, actives lie on both sides, 0 = cold GTP competed, 100 = untreated.

SMILES | GTP binding activity (% of control)
Cc1cc(C)nc(NC(=O)CSc2nccc(C)n2)n1 | inconclusive: 100%
O=C(CSc1nnnn1-c1cccc2c1CCCC2)N1CCCCC1 | inactive: 94%
C=CCN(C(=O)c1cccc(N2C(=O)C3CC=CC(C)C3C2=O)c1)c1ccccc1 (configuration not stated) | inactive: 101%
CCCCCCCC(=O)NNC(=O)Cc1ccccc1 | inactive: 93%
Cc1cc(C)nc(Nc2nc(C)c3cc4c(cc3n2)OCO4)n1 | inconclusive: 108%
CNc1ncc(C(=O)c2ccccc2)s1 | inactive: 101%
CCc1ccc(-c2c(C)sc(NC(C)=O)c2C(N)=O)cc1 | inconclusive: 104%
CC(C)=CCCC(C)CN1CCC(N2CCC(C(=O)NC(C)C)CC2)CC1 (configuration not stated) | inactive: 98%
CC(=O)Nc1ccc(S(=O)(=O)N2CCN(C(C)CCc3ccccc3)CC2)cc1 (configuration not stated) | inconclusive: 107%
O=C(NC(=S)N1CCN(c2ccc(F)cc2)CC1)C12CC3CC(CC(C3)C1)C2 | inconclusive: 107%
CCOC(=O)c1c(C)n(CC(COC(C)=O)OC(C)=O)c2ccc(OC(C)=O)cc12 (configuration not stated) | inconclusive: 103%
CCNC(=O)NC(=O)C(C)OC(=O)Cc1coc2cc3c(cc12)CCC3 (configuration not stated) | inconclusive: 95%
CC1(C)N=C(N)NC(Nc2ccccc2Cl)=N1 | inactive: 92%
COc1ccc(C(=O)c2c(O)cc(-c3ccc(OC)cc3)oc2=O)cc1 | active: 137% [activator]
O=C(O)CSc1nnc(COc2cccc3ccccc23)n1Cc1ccccc1 | inconclusive: 87%
O=C(CSc1nnc(-c2ccco2)n1Cc1ccco1)NCc1cccs1 | inconclusive: 106%
Cc1ccc(/C([O-])=C(/C(=S)Nc2ccc(SC(F)F)cc2)[n+]2ccccc2)cc1[N+](=O)[O-] | inconclusive: 90%
Cc1ccc(S(=O)(=O)NCc2ccc(C(=O)NCCN(Cc3ccccc3)C(C)C)cc2)cc1 | inactive: 93%
COc1cccc(-c2nn(C)c3sc(C(=O)NCc4ccco4)cc23)c1 | inconclusive: 92%
Cc1onc(-c2c(F)cccc2Cl)c1C(=O)N1CCOC12CCCCC2 | inactive: 100%
CC(=O)N(Cc1cc(=O)[nH]c2ccccc12)c1ccc(C)cc1 | inconclusive: 104%
CC1CCC(NC(=O)C2c3ccccc3C(=O)N2Cc2cccs2)CC1 (configuration not stated) | inactive: 99%
CCCOc1ccc(C(CC(=O)O)NC(=O)c2sc3ccccc3c2Cl)cc1 (configuration not stated) | active: 76%

SMILES | GTP binding activity (% of control)
O=C(c1cccc([N+](=O)[O-])c1)N1CCN(c2ccccn2)CC1 | inconclusive: 112%
CC(O/N=C/c1ccc(OC(F)F)cc1)C(=O)Nc1cccc(S(=O)(=O)N2CCOCC2)c1 (configuration not stated) | inactive: 102%
Cc1onc(COc2ccccc2O)c1Br | inconclusive: 104%
CC1CC1C(=O)OCC(=O)c1c(N)n(C)c(=O)n(C)c1=O (configuration not stated) | inactive: 92%
CCN(CC)CC1(O)CCN(C(=O)c2ccc(Cl)c(Cl)c2)CC1 | inconclusive: 107%
COc1cccc(Nc2ncc(C(=O)O)c3ccccc23)c1 | inactive: 102%
COc1ccc(NC(=O)CC2CC3CCC2C3)cn1 (configuration not stated) | inconclusive: 94%
COc1ccc(Cn2c(N)c(C#N)c3nc4ccccc4nc32)cc1 | inactive: 99%
CCn1c(=O)n(CC(=O)Nc2ccc(F)cc2)c(=O)c2ccccc21 | inactive: 103%
O=C(Nc1ccccc1Cl)c1ccccc1Cc1ccccc1 | inactive: 111%
Cc1ccc([N+](=O)[O-])cc1-c1ccc(/C=C(\C#N)c2[nH]nc(N)c2C#N)o1 | active: 79%
COc1ccc(C(C(=O)NC2CCCC2)N(C(=O)c2snc(-c3ccc(F)cc3)c2N)c2ccc(F)cc2)cc1 (configuration not stated) | inconclusive: 104%
Cc1nc2ncccn2c1-c1csc(Nc2ccc(O)cc2)n1 | inconclusive: 46%
O=C(NNc1ccc([N+](=O)[O-])cc1)C1CC2CCCC(C1)C2=O (configuration not stated) | inconclusive: 93%
CCC(C(=O)N1CCc2cc(OC)c(OC)cc2C1)c1ccccc1 (configuration not stated) | inconclusive: 107%
O=C(Cc1csc(N2CCOCC2)n1)N/N=C/c1cccc(O)c1 | inconclusive: 104%
O=C1C2C(c3ccccc3)(C(=O)N1c1ccc(Cl)cc1)C2(c1ccccc1)c1ccccc1 (configuration not stated) | inactive: 104%
CC(=O)NCCC(=O)Nc1cc(S(=O)(=O)N2CCOCC2)ccc1N1CCOCC1 | inactive: 100%
Cc1ccc(C)c(NC(=S)NNC(=O)c2cc3c(s2)CCC(C)C3)c1 (configuration not stated) | inconclusive: 140%
COc1ccc(NS(=O)(=O)c2ccc(N/N=C/c3ccc(N4CCOCC4)cc3)c([N+](=O)[O-])c2)cc1 | inconclusive: 97%
O=C(O)C1C(C(=O)Nc2ccc(Cl)cc2)C2C=CC1C21CC1 (configuration not stated) | inconclusive: 140%
c1ccc2c(c1)[nH]c1c(N3CCOCC3)ncnc12 | inconclusive: 92%
CCOC(=O)N1CCN(S(=O)(=O)c2cc([N+](=O)[O-])ccc2C)CC1 | inconclusive: 101%

SMILES | GTP binding activity (% of control)
COc1ccc(C2=NNC(=O)CC2)cc1 | inactive: 104%
COc1ccc(-n2c(=O)[nH]c3c(C(N)=O)nc(C4CCCCC4)nc32)cc1 | inactive: 102%
CC(=O)c1cc(OC(=O)N2CCOCC2)ccc1OC(=O)N1CCOCC1 | inconclusive: 92%
O=c1[nH]cc(S(=O)(=O)c2ccccc2)[nH]1 | inconclusive: 97%
Cc1cc(CNC(=O)c2ccc(C)c([N+](=O)[O-])c2)c2ccccc2n1 | inactive: 94%
O=c1c2ccccc2nc2c3ccccc3c(Cl)nn12 | active: 69%
NS(=O)(=O)c1ccc(N2N=C(c3ccccc3)CC2c2ccccc2)cc1 (configuration not stated) | inactive: 99%
CC(=O)c1ccc(NC(=S)NNC(=O)c2ccncc2)cc1 | inactive: 103%
O=C(NCc1cccnc1)c1cccn2c(=O)c3sccc3nc12 | active: 76%
CC1=C(C(N)=O)C(c2cccnc2)n2nc(SCc3ccccc3Cl)nc2N1 (configuration not stated) | inconclusive: 105%
CCOC(=O)N1CCN(c2c(N3CCc4ccccc43)c(=O)c2=O)CC1 | inconclusive: 107%
CC(CC(=O)NC1CCSC1=O)c1ccccc1 (configuration not stated) | inconclusive: 111%
COc1ccc(/C=C/c2c([N+](=O)[O-])c(=O)n(C)c(=O)n2C)c(OC)c1 | inconclusive: 95%
COc1cc(NC(=O)c2ccc3c(c2)OCCO3)ccc1NC(=O)c1ccco1 | inconclusive: 94%
CC(C)c1nc2oc3c(=O)[nH]cnc3c2c2c1CCC2 | active: 79%
N#C/C(=C\c1ccc(N2CCCCC2)o1)C(=O)Nc1cccc(Br)c1 | inconclusive: 112%
Fc1ccccc1-c1csc(=Nc2cccnc2)n1CCCn1ccnc1 | inactive: 105%
O=C1CN=C(Nc2ccccc2Cl)N1Cc1ccc2c(c1)OCO2 | inconclusive: 104%
CC#CCC(CC#CC)c1nc2ccccc2c(=O)n1N | inconclusive: 105%
O=C(O)CC1=C(Nc2ccccc2)C(=O)N(c2ccccc2)C1c1ccc(Br)cc1 (configuration not stated) | inactive: 100%
COc1ccc(-c2nc3cc(NC(=O)Cc4ccc(OC)c(OC)c4)ccc3o2)cc1 | inconclusive: 99%
CCOC(=O)n1c(=O)n(C)c2ccc(Cl)cc21 | inconclusive: 96%
C(=N\Nc1nn2cnnc2c2ccccc12)/c1ccco1 | inactive: 88%

SMILES | GTP binding activity (% of control)
NC(=O)c1nn(-c2ccccc2)nc1NC(=O)Cn1nnc(-c2ccccc2)n1 | inactive: 103%
COc1ccc(CCNS(=O)(=O)c2ccc3c(c2)CCN3C(=O)C2CC2)cc1OC | inconclusive: 108%
Cn1c2c(c(=O)n(C)c1=O)CN(CCc1ccccc1)CN2 | inconclusive: 108%
Cc1ccccc1C1(CCN2CCCCC2)CCOC(C)(C)C1 (configuration not stated) | inconclusive: 104%
Cc1cccc2cc(-c3ccccc3)c(-c3ccccc3)c[n+]12 | inactive: 105%
CCOc1ccc(NCc2ccccc2OCc2cccc(F)c2)cc1 | active: 129% [activator]
Oc1c(CN2CCOCC2)ccc2ccccc12 | inconclusive: 113%
NNC(=O)[C@H]1C[C@@H]1c1ccccc1 | inconclusive: 108%
Cc1ccc(NC(=O)/C(C#N)=C/c2cc(C)n(-c3ccc(N4CCOCC4)c([N+](=O)[O-])c3)c2C)c(C)c1 | inconclusive: 110%
Cc1sc2nc(SCC(=O)N3CCCCC3)[nH]c(=O)c2c1C | inconclusive: 103%
COc1ccccc1CC(=O)NCCc1ccc(S(N)(=O)=O)cc1 | inactive: 111%
O=C(Nc1cnn(C23CC4CC(CC(C4)C2)C3)c1)c1cnn2cccnc12 | active: 138% [activator]
CC(C)n1c2ccccc2c2cc([N+](=O)[O-])ccc21 | inconclusive: 104%
Cc1ncc(CC(=O)n2cc(C(=O)c3cc(F)ccc3O)cn2)s1 | inactive: 99%
COCCCNC(=S)NCCCNc1nc2cc3c(cc2cc1C#N)OCO3 | inconclusive: 97%
CN(C(=O)CSc1ncnc2scc(-c3ccccc3)c12)C1CCS(=O)(=O)C1 (configuration not stated) | inconclusive: 105%
CCOC(=O)c1ccc(NC(=O)C2(c3ccccc3)CCOCC2)cc1 | inconclusive: 105%
CC1Cc2ccccc2N1C(=S)NC(=O)c1ccco1 (configuration not stated) | inconclusive: 91%
CC1=C(C)[N+](=O)C2(O)CCCCC2(C)N1[O-] (configuration not stated) | inconclusive: 104%
O=C(CSc1n[nH]c(=O)[nH]c1=O)N/N=C/c1ccccc1 | inconclusive: 228%
C=CC#CC[N+]1(CC#Cc2ccccc2)CCOCC1 | active: 128% [activator]
Cc1onc(-c2ccccc2Cl)c1C(=O)NCc1ccc(N2CCCC2=O)cc1 | inconclusive: 107%
COCCCNC(=O)c1cc(C(=O)c2ccccc2Br)c[nH]1 | inconclusive: 93%
